# According to ChEMBL document CHEMBL4888484, “Replenishing the malaria drug discovery pipeline: Screening and hit evaluation of the MMV Hit Generation Library 1 (HGL1) against asexual blood stage Plasmodium falciparum ,using a nano luciferase reporter read-out” (2022):
# The campaign covered roughly 150,000 compounds. About 540 (0.36%) showed an effect of 50% or more. This is one part of the list.
# System: Plasmodium falciparum
# Test: Primary screen in NF54 nanoGlo assay, in single point, at 2uM, 72h; a lower Z score goes with more inhibition
# Format: functional, Erythrocyte
# Conditions: timepoint 72 hour
Structure (SMILES),% Inhibition,Z score
Cc1nc(C)c(S(=O)(=O)NCc2ocnc2C)s1,34%,-3.85
Cc1ccc(-n2cc(-c3ccc(Cl)cc3)nc2NC(=O)CN(Cc2ccccc2)C(=O)c2ccc(Cl)cc2Cl)cc1,-20%,2.3
CCOC(=O)c1ccc(NC(=O)N2CCC(n3nnc4cc(C(=O)N(C)C)ccc43)CC2)cc1,2%,-0.22
CC(=O)Nc1nc(C(=O)N2CCOC(C)(C)[C@@H]2C)cs1,-5%,0.68
c1cncc(NC2CCN(CCCOc3ccc4c(c3)OCO4)CC2)c1,-10%,1.29
c1cnc(N2CCC[C@H](n3ccnc3-c3ccc4ccccc4n3)C2)nc1,-2%,0.23
NCc1ccc(F)c(-c2cccc3ccnn23)c1,-5%,0.45
O=C1C[C@H](CNC(=O)NCC2CCCCCC2)CN1,-9%,1.57
CC1(C)C2C(c3ccccc3)(c3ccccc3)N=NC21C (configuration not stated),-3%,0.4
CC(C)(C)c1ccc([C@@H]2CCCN2C(=O)c2cc[n+]([O-])cc2)cc1,-7%,0.98
CC(C)c1nocc1C(=O)N1CCC(c2ccc3[nH]ccc3c2)CC1,-3%,0.63
COc1ccc(N2CCN(Cc3nc(C(=O)Nc4ccccc4)co3)CC2)cc1,-5%,0.92
CCOC(=O)N1CCN(C(=O)CCc2cc3ccc(C)cc3nc2O)CC1,-7%,1.23
CCn1ncc(NC(=O)Cn2ccc3cc(-c4cncnc4)ccc32)n1,-7%,1.19
Cc1ccc2c(OC[C@@H]3CNC(=O)C3)cc(C)nc2c1,-8%,1.2
CC(=O)N1CCOC[C@H](Oc2ccc(C(F)(F)F)cn2)C1,-5%,0.83
COc1ccc2[nH]c(CN3CCC[C@H](N(C)CCc4ccccn4)C3)c(C)c2c1,-11%,1.01
O=C(NCC1CC(F)(F)C1)c1ccc[nH]1,-3%,0.39
CCC[C@]1(CO)CCCN1C(=O)c1ccc(N2CCCC2=O)cc1,-4%,0.66
CCC1(CC)C(=O)N(C)C(=O)N=C1Nc1ccc(OC)cc1,-10%,0.87
CC(C)C(=O)N1CCC(c2nc(-c3cccn3C)no2)CC1,-15%,2.03
CC(C)c1csc(C(=O)N(C[C@H]2CCCO2)c2ccncc2)n1,-14%,1.59

Structure (SMILES),% Inhibition,Z score
Cn1nc(-c2ccncc2)cc1CNC(=O)c1c(F)cccc1F,-20%,2.62
CCn1nc(C)c(CNCc2cccnc2C)n1,-2%,0.22
O=C(Nc1nnc(Cc2ccsc2)s1)c1ccc(Cl)cn1,-11%,1.22
COCC(=O)N[C@H]1CN(C/C(C)=C/c2ccco2)C[C@@H]1C1CC1,-6%,1.04
CNc1ccnc(N2CCn3nc(CNS(C)(=O)=O)cc3C2)n1,-13%,1.26
CCc1ncoc1C(=O)NC(C)(C)c1cc(Cl)ccc1OC,8%,-0.88
Cc1ccc(N(C)C(=O)C2CC2C(=O)O)cc1Cl (configuration not stated),2%,-0.37
Cc1cc(O)nc(C(=O)N2CC3(CCC3)c3ccccc32)c1,-12%,2.19
CCn1c(C)cc(C(=O)N2CC[C@](C(N)=O)(c3ccccc3)C2)c1C,-12%,1.6
CC1(N2CCOCC2)CCN(c2ncc(C(F)(F)F)s2)CC1,-5%,0.84
COc1ncccc1C(=O)OCC(=O)N(C)C1CCCCC1C (configuration not stated),-5%,0.54
CN(Cc1ccsc1)c1cc([C@H]2C[C@@H](N)C2)nc(C2CC2)n1,16%,-1.91
CCOC1CC(NCc2ccc3c(c2)C(=O)NCC3)C1 (configuration not stated),12%,-1.39
Cc1nc(CN2C(=O)C3CC=CCC3C2=O)sc1C (configuration not stated),14%,-1.82
CC(C)(C)c1nc(Cn2cc(F)ccc2=O)no1,-17%,2.11
Cc1nn(C(C)C)c(C)c1CNC(=O)CCC1=NNC(=O)CC1,1%,-0.07
Cc1n[nH]cc1CNCCN1CCC[C@H](C)C1,15%,-2.18
COCCN(Cc1ccc(OC)c(OS(=O)(=O)c2cccc(C(F)(F)F)c2)c1)C(=O)c1ccccc1F,-7%,1.24
N#Cc1nccnc1NCCCOC1CCCCC1,-7%,1.14
CC(C)c1nn(C)cc1C(=O)NCC1(C2CCC2)CCC1,28%,-3.2
Cc1oc(C(=O)N2CCC(C)(C)[C@@H](c3ccccc3)C2)cc1CO,5%,-0.72
COc1nc2ncnc(OC)c2nc1C#N,38%,-1.2

Structure (SMILES),% Inhibition,Z score
Cc1ccn2c(NC(C)(C)CC(C)(C)C)c(CC(C)C)nc2c1,-21%,2.32
CC(=O)N[C@H]1CCN(C(=O)NCCc2cccc(Cl)c2)C1,-15%,2.93
NC1(C(=O)N2CCc3[nH]nc(-c4cccc5ccccc45)c3C2)CCC1,-7%,0.98
Cc1ccc(CCC(=O)Nc2ccccc2-n2ncc3c(=O)[nH]cnc32)c(C)c1,-8%,1.22
CCC1CCCCC1N(C)c1ccc2nnnn2n1 (configuration not stated),-11%,1.68
c1cncc([C@@H]2CN(Cc3nccs3)CCO2)c1,0%,-0.05
COc1ccccc1N1CCN(C(=O)C[C@@H]2O[C@H](CNC(=O)c3ccc(C)cc3)[C@@H](O)[C@H]2O)CC1,14%,-1.58
O=C(NCCCn1ccnc1)C1CCCC1,-8%,0.91
CCCOc1cccc2c(N3CCNC(=O)C3)ccnc12,-8%,1.5
COc1cc(OC)c([C@H](C)NCCc2cn(C)cn2)cc1Cl,-5%,0.83
O=C1Nc2cc(C(=O)N3CCN(Cc4ccc5c(c4)OCO5)CC3)ccc2N2CCCC[C@@H]12,-3%,0.51
CC[C@H]1C(=O)NCCN1CC=Cc1ccccn1,-16%,2.11
Cc1cc(NS(=O)(=O)c2ccc(N(C)C)nc2)cnc1N1CCCCC1,1%,-0.1
Cc1nn(-c2ccc(Cl)cc2Cl)c(C)c1CC(=O)N1CC[C@@H](N)C1,-1%,0.1
Cc1c(C(=O)N2CCC(O)(CN)CC2)sc2cc(F)ccc12,-14%,1.95
Cc1nn(C)cc1NC(=O)CN(C)Cc1ccoc1,-6%,1.17
C[C@@H]1CN(C(=O)C23CCC(CC2)C3)C[C@H](C)N1C,-5%,0.86
O=C1C[C@@H](C(=O)Nc2scnc2-c2ccccc2)Oc2ccc(Cl)cc21,0%,0.08
CC(=O)c1ccc(N2CCN(C(=O)Cn3cnc4onc(C)c4c3=O)CC2)cc1,2%,-0.33
CC(C)C[C@@H](CNC(=O)CC(=O)Nc1nccs1)N(C)C,-4%,0.52
Cc1cc(F)c(S(N)(=O)=O)c(N[C@@H]2C=C[C@H](CO)C2)c1,21%,-2.65
CCOC(=O)c1nnn(Cc2ccccc2Cl)c1NC(=O)CN1CCN(C)CC1,-8%,0.99

Structure (SMILES),% Inhibition,Z score
CC(C)c1nnc(CNc2ccccc2C(=O)C2CCCC2)o1,-13%,1.08
O=C(Nc1ccc2oc(C3CC3)nc2c1)c1cncc(Br)c1,-10%,2.05
Cc1nn(CCc2nnc(-c3ccc4c(c3)OCO4)o2)c(C)c1Cl,36%,-1.17
CC(NC(=O)CN(C)C(C)C)C(O)c1c(F)cccc1Cl (configuration not stated),39%,-3.97
CC(=O)c1cccc(NC(=O)N2C[C@H](c3nc(-c4ccccc4)no3)[C@@H](C)C2)c1,5%,-0.55
COC[C@H]1CN(C(=O)CCc2ccccc2)CC12CCOCC2,-11%,1.41
CC(C)NC(=O)NC[C@H]1CCN(Cc2ccc(-c3cc[nH]n3)o2)C1,8%,-1.09
Fc1cc2nc3c(nc2cc1F)CCC3,-17%,1.94
C[C@H]1Cc2ccccc2N1C(=O)c1nn(-c2cccc(Br)c2)c2c1CCC2,-16%,3.01
CCn1cc(CCN2C[C@@H]3CN(Cc4ccccc4)C[C@@H]3C2)cn1,-9%,1.18
c1cc(-c2noc(C3CCOCC3)n2)ccc1OC1CNC1,-11%,2.07
CC(C)c1cc([C@@H]2CCCN2S(=O)(=O)c2cccc(Cl)c2)no1,-19%,2.57
COc1cc2c(cc1C=Cc1cncc(C)n1)OCO2,-34%,3.99
O=C(C1CCS(=O)(=O)C1)N1CCCCCC1C=Cc1ccccc1 (configuration not stated),-4%,0.65
CCN(CC)S(=O)(=O)CC(=O)NCCCc1ccccc1,-7%,0.91
c1ccc(-c2nnn(C(c3ccccc3)(c3ccccc3)c3ccccc3)n2)cc1,0%,0.07
C[C@H](C(=O)N1CCOCC1)C1CCN(S(=O)(=O)c2cccs2)CC1,-15%,2.02
CC(C)C(C)(C)NC(=O)CN1Cc2c(cnn2-c2ccccc2)C1=O,7%,-0.91
COc1nccc(CN2CCC(OCCO)CC2)c1F,10%,-1.26
FC(F)(F)Oc1cccc(C2(c3nc(Cc4ccon4)no3)CCC2)c1,2%,-0.28
